Measurements taken from PMC4336329 (PLoS ONE, 2015).
Among all 310,000 compounds or so, about 14,000 (4.5%) showed an effect of 50% or more. Effects have a minus sign here. This is one part of the list.

target: human ether-à-go-go-related gene (hERG) potassium channel (human, UniProt Q12809); assay: primary screen, population patch clamp on CHO cells stably expressing hERG
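Further: peak tail current of the secondary pulse compared with the same well before compound.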

Sequence of human ether-à-go-go-related gene (hERG) potassium channel (Q12809 whole entry, looked up): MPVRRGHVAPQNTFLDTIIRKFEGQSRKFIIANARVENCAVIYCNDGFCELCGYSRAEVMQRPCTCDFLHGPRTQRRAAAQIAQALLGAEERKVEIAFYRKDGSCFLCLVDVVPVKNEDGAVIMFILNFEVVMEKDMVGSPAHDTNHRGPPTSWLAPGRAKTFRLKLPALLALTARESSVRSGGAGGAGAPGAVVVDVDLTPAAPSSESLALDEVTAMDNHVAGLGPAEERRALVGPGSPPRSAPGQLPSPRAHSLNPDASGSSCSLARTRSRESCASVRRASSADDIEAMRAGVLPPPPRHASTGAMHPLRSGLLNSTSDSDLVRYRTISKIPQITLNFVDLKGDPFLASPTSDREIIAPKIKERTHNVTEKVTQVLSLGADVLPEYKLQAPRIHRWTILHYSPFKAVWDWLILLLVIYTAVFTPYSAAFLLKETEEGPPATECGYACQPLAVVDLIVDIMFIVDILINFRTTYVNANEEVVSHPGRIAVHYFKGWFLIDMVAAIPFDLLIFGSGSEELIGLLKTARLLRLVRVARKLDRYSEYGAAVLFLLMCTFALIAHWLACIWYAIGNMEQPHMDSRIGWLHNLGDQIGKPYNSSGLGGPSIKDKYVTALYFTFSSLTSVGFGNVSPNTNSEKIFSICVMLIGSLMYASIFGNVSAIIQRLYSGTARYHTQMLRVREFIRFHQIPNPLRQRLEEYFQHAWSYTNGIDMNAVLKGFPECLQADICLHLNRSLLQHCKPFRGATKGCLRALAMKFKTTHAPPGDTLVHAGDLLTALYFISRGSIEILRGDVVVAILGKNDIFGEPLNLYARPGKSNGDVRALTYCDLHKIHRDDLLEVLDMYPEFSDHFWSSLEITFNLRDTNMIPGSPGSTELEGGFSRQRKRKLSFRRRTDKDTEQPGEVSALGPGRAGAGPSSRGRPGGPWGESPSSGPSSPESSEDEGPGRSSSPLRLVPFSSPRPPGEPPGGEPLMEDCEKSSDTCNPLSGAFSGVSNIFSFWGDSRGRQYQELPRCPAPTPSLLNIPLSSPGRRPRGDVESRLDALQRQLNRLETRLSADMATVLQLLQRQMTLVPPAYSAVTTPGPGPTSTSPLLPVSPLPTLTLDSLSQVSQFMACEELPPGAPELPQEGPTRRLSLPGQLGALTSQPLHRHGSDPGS

Row | SMILES | hERG current change (%, negative = inhibition) at 10uM [%]
1 | COc1ccc(NC(=O)c2ccc(-n3cccn3)nc2)cc1 | 3.8
2 | CN(C)C(CNC(=O)CSc1nnc(-c2ccco2)o1)c1ccccc1 (stereo not drawn) | -4.19
3 | CCOc1ccc(CN(CCO)CCO)cc1[N+](=O)[O-].Cl | -62.9
4 | Cc1cc(C)c(S(=O)(=O)NC2CC2)c(C)c1 | 6.97
5 | c1ccc(C2NCCc3[nH]cnc32)cc1 (stereo not drawn) | 15
6 | CNS(=O)(=O)c1cccc(C(=O)OCC(=O)Nc2ccc(Cl)cc2F)c1 | 4.71
7 | C/C=C/c1c(F)c(F)c(Oc2ccc(C(=O)O)cc2)c(F)c1F | 10.9
8 | COc1cccc(NC(=O)c2sc(Cl)nc2C)c1 | 26.5
9 | Cc1nc(-c2ccc([N+](=O)[O-])cc2)nc2[nH]ccc(=O)c12 | 7.67
10 | CCN1CCN(Cc2ccc(NC(=O)c3cc(NC(=O)c4cnnc5ccccc45)cc(OC)c3)cc2C(F)(F)F)CC1 | -0.082
11 | CCCNS(=O)(=O)c1ccc(OCC(=O)N2CCc3ccccc3C2)c(C)c1 | -65.9
12 | Cc1cccc(N2CCN(C(=O)c3c(Cl)cnn3C)CC2)c1C | -26.6
13 | CC(=O)N1CCOc2ccc(S(=O)(=O)NCCc3cccc(C)c3)cc21 | -2.66
14 | N=c1c(C(=O)NCc2ccc3c(c2)OCO3)cc2c(=O)n3ccccc3nc2n1CC1CCCO1 (stereo not drawn) | -79.5
15 | CCn1c(SCC(=O)Nc2ccc(C(=O)OC)cc2)nc2cccnc21 | -4.09
16 | COc1ccc(OC)c(Nc2nc(NCc3ccco3)nc(N)c2[N+](=O)[O-])c1 | 4.54
17 | CCn1c(=O)n(CC)c2cc(S(=O)(=O)N3CCc4ccccc43)ccc21 | 2.28
18 | CC(NC(=O)C1CCC(CNS(=O)(=O)c2ccccc2)CC1)c1ccccc1 (stereo not drawn) | 22.7
19 | COc1ccc(C(=S)N2CCOCC2)cc1OC(=O)c1cccc([N+](=O)[O-])c1 | -39.9
20 | Cc1ccc(-c2nnn(CC(=O)NCCc3ccc4c(c3)OCO4)n2)cc1 | 11.6
21 | COc1ccc(OCC(=O)N2N=C(C(F)F)CC2(O)C(F)F)cc1 (stereo not drawn) | 1.83

Row | SMILES | hERG current change (%, negative = inhibition) at 10uM [%]
22 | F[B-](F)(F)F.O=[N+]([O-])c1ccc2nc(-[n+]3c(-c4ccccc4)cc(-c4ccccc4)cc3-c3ccccc3)[nH]c2c1 | -61.8
23 | COc1ccc2cc3c(N)nn(C(=O)c4cccc([N+](=O)[O-])c4)c3nc2c1 | 5.49
24 | C=CCSc1nnc(N2C(=O)C(O)=C(C(=O)c3ccco3)C2c2ccccc2F)s1 (stereo not drawn) | 8.23
25 | COc1ccc(C2=NN(C(=S)Nc3ccccc3)C(c3ccccc3)C2)cc1 (stereo not drawn) | 18
26 | COc1cc(/C=C2\SC(N)=NC2=O)ccc1OCC(=O)Nc1ccccc1C | -2.6
27 | CCC(C(=O)NC1CCCCC1)n1nc(C)c2c(C)n(-c3ccccc3)nc2c1=O (stereo not drawn) | -43.8
28 | COc1ccc(C(=O)NC(=S)NCc2ccco2)cc1 | 10.5
29 | C[C@@H]1CC[C@@]23COC(=O)C2=CCC[C@@H]3[C@@]1(C)CC/C(=C/CO)CO | -6.27
30 | CC(Oc1ccc(F)cc1)C(=O)Nc1sc2c(c1C(=O)NCc1cccnc1)CCCC2 (stereo not drawn) | -30.1
31 | Cc1noc(C)c1S(=O)(=O)N(CC(=O)NCc1ccc2c(c1)OCO2)c1ccc(C(C)C)cc1 | 9.81
32 | COc1ccc(N(CC(=O)NCc2ccc3c(c2)OCO3)C(=O)CCC(=O)Nc2ccccn2)cc1 | -4.44
33 | Cc1ccc(CN2CCNC(=O)C2CC(=O)N(C)C2CCCCC2)cc1 (stereo not drawn) | -4.37
34 | CNC(=O)/C(C#N)=c1\s/c(=C/C(=O)OC)c(=O)n1-c1ccccc1 | 15.8
35 | CCCCn1c(N)c(N(CCOC)C(=O)COC(=O)COc2c(C)cccc2C)c(=O)[nH]c1=O | 12.4
36 | COc1ccc2c(c1)cc(C(=O)N[C@@H](Cc1ccccc1)C(=O)N[C@@H](C)C(=O)O)n2C | 15.5
37 | COC(=O)c1cc(NC(=O)c2cccc(F)c2)cc(C(=O)OC)c1 | 5.98
38 | COc1ccc(/C=C2\Sc3ccc(C(=O)NCc4cccnc4)cc3N(C)C2=O)cc1OC | -13.8
39 | COc1ccc(NC(=O)CSc2nnc(CC(=O)Nc3ccc(F)cc3)n2C)cc1 | -15.9
40 | CC(C)c1nnc(NC(=O)c2ccc3c(c2)OCO3)s1 | 16
41 | CCc1nnc(NC(=O)c2sc3nc(C)cc(COC)c3c2N)s1 | -7.43
42 | O=C(O)CCN1C(=O)c2ccc(NC(=O)COc3ccccc3)cc2C1=O | 2.08

Row | SMILES | hERG current change (%, negative = inhibition) at 10uM [%]
43 | COc1ccccc1OCCCn1cc(C=O)c2ccccc21 | -3.23
44 | CC(=O)N1c2ccc(S(=O)(=O)N(C)CC(=O)N(C)Cc3ccccc3)cc2CC1C (stereo not drawn) | 4.76
45 | CC(C)CCNC(=O)c1onc(CSc2nc3ccccc3[nH]2)c1C(=O)NCCC(C)C | 7.33
46 | COc1ccc(OC(C)C(=O)NC2CCCCCC2)cc1 (stereo not drawn) | -0.287
47 | COc1ccccc1-n1cnnc1SCC(=O)N1CCN(C(=O)c2ccco2)CC1 | 6.54
48 | Cc1nnc(SCC(=O)N2CCC(c3noc4ccc(F)cc34)CC2)s1 | -25.1
49 | Cc1ccccc1C(=O)Nc1ccc(C(=O)N/N=C/c2ccc(O)cc2)cc1 | 10.7
50 | CCOC(=O)c1cc(-c2ccncc2)nc2c1c(C)nn2-c1ccccn1 | -63.3
51 | Cc1cc(NC(=O)c2ccc([N+](=O)[O-])cc2)no1 | 16.2
52 | COc1ccccc1-c1c(C(F)(F)F)oc2cc(OC(=O)c3cccc([N+](=O)[O-])c3C)ccc2c1=O | 16.9
53 | CCn1c(/C=N/n2cnnc2)nc2ccccc21 | -5.4
54 | Cc1cccn2c(=O)c(C=C(C#N)C#N)c(N3CCN(C)CC3)nc12 | -4.9
55 | COc1ccc(NC(=O)COC(=O)/C=C/c2cccs2)c(OC)c1 | 0.755
56 | CC(C)(C)c1nn2cnnc2n(/N=C/c2ccc(O)cc2)c1=O | -5.59
57 | CC(=O)c1ccc(C(=O)NC2CCCN(Cc3ccc(Cl)cc3)C2)s1 (stereo not drawn) | -66.4
58 | N#Cc1c(F)cccc1N1CCOCC1 | 14.6
59 | CCc1ccccc1NC(=O)NNC(=O)CCc1ccc(OC)cc1 | 17.8
60 | CC1CCCCC1NS(=O)(=O)CCNC(=O)c1ccccc1 (stereo not drawn) | -5.88
61 | COc1ccc(CCNC(=O)CNS(=O)(=O)c2ccc(Br)cc2)cc1 | -3.07
62 | CC1=CC(c2ccc(Cl)cc2)n2ncnc2N1 (stereo not drawn) | -9.02
63 | O=C(Cn1c(=O)sc2ccccc21)Nc1ccc(O)cc1 | 14.6

Row | SMILES | hERG current change (%, negative = inhibition) at 10uM [%]
64 | COc1ccccc1-c1cc(C(=O)Nc2c(F)cc(F)cc2Br)no1 | -32.1
65 | O=C1c2ccccc2C(=O)N1CCCCON1C(=O)c2ccccc2C1=O | 5.57
66 | O=C(OC(c1ccccc1)c1nccc2ccccc12)c1cc([N+](=O)[O-])cc([N+](=O)[O-])c1 (stereo not drawn) | 22.9
67 | C[C@H](N)c1nnc(SCC(=O)N(C)C)o1.Cl | -2.88
68 | COc1ccc(S(=O)(=O)Nc2ccc(NC(C)=O)cc2)cc1Cl | 13.6
69 | Cc1cccc(-n2c(=O)c3c(n4cnnc24)-c2ccccc2CC32CCCCC2)c1 | -21.2
70 | Cc1ccc(C(=O)N2CCCCCC2)cc1S(=O)(=O)Nc1ccccc1 | -26.5
71 | CCOc1ccc(Nc2ncnc3c2cnn3C)cc1 | -16.6
72 | COCCN(Cc1cc2cc(C)ccc2n2nnnc12)C(=S)Nc1cccc(C)c1 | 28.9
73 | O=C(COc1ccc2c3c(c(=O)oc2c1)CCC3)N1CCN(c2ccccc2)CC1 | -12.6
74 | CCCN1CCN(CCCNC(=O)Cn2cc3c(n2)CCCC3)CC1 | -7.41
75 | COc1ccc(OCCC(=O)OCC(=O)Nc2ccc(Br)cc2)cc1 | 25
76 | CCc1nc(CN2CCN(c3cc(C(F)(F)F)ccn3)CC2)c(C)[nH]1 | -45.2
77 | CCOC(=O)C1CCN(CCC(=O)Nc2cc(C)ccc2C)CC1 | -10.7
78 | Cc1nc2c(-c3ccc(F)cc3)c(C)nn2c(C)c1CCC(=O)Nc1ccccc1F | -10.7
79 | Cn1ccnc1COc1ccc(/C=N/O)cc1 | -6.61
80 | COC(=O)C1=C(c2cccc(C#N)c2)C[C@@H]2CC[C@H]1N2C(=O)N1CCCC1 | 11
81 | O=C(COC(=O)c1cn(-c2ccccc2)nc1-c1ccc(F)cc1)Nc1ncc(Cl)cc1Cl | -0.58
82 | CCCN(CC(=O)Nc1ccc(Cl)cc1Cl)C(=O)CC(NC(C)=O)c1ccccc1 (stereo not drawn) | 0.715
83 | O=C(NCc1ccccc1)c1ccccc1C(=O)c1ncc[nH]1 | 11.4
84 | COc1ccc(C(=O)NC(=S)NNC(=O)c2ccc(NC(C)=O)cc2)cc1Br | -5.12
